# Data as given in the supplement of paper PMC7826260.
# The other results are listed elsewhere or left out. The data describe in vitro nicking of single-stranded DNA by Rep domains at 3 µM enzyme and 37 °C for 1 h; the strands have 90 letters, of which the middle is given. A value is the log2 ratio of uncut reads to the pool without enzyme; strong cutting gives strongly negative numbers. There is no active / inactive call. Shares of all reads are compared; values above 0 arise when much of the pool is cut.
# Tests used:
# Test in all cases: uncleaved DNA left, log2 of reads against the no-enzyme library (log2 ratio); higher = less cleavage (more negative = more Rep cleavage of the k-mer); sequences stand for … in CTCGTCCG…ACCGGAGA
# [1] = test system: T1, Rep nickase domain of Muscovy duck circovirus
# T1 sequence (protein, residues 1-111, tag omitted): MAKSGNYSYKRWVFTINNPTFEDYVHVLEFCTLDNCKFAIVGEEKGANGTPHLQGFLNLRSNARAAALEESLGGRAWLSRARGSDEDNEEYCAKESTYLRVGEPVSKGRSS
# Description: (§1)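 A pool of 90-nt single-stranded DNAs with seven random bases just before the constant AC of the nick site (name = the seven bases) was cut by 3 µM recombinant His6-SUMO-tagged Rep nickase domain (300 nM DNA, 50 mM HEPES pH 8.0, 50 mM NaCl, 1 mM MnCl2, 1 h, 37 °C, three replicates). Uncut DNA was amplified and sequenced.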
# [2] = test system: T2, Rep nickase domain of banana bunchy top virus
# T2 sequence (protein, residues 1-94, tag omitted): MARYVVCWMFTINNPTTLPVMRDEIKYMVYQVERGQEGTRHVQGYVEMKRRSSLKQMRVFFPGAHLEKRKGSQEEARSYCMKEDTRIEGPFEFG
# Description: as §1
# [3] = test system: T3, Rep nickase domain of cabbage leaf curl virus
# T3 sequence (protein, residues 1-116, tag omitted): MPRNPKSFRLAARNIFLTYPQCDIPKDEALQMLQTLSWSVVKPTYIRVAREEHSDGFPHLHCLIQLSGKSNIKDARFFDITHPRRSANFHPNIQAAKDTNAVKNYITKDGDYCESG
# Description: as §1
# [4] = test system: T4, Rep nickase domain of chickpea chlorotic dwarf virus
# T4 sequence (protein, residues 1-124, tag omitted): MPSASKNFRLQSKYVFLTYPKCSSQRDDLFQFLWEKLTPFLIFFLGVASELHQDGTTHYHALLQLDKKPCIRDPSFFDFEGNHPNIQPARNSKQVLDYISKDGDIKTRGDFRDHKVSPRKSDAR
# Description: as §1
# [5] = test system: T5, Rep nickase domain of faba bean necrotic yellows virus
# T5 sequence (protein, residues 1-98, tag omitted): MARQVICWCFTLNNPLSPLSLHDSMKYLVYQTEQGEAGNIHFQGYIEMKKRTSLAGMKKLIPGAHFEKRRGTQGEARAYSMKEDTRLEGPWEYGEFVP
# Description: as §1
# [6] = test system: T6, Rep nickase domain of maize striate mosaic virus
# T6 sequence (protein, residues 1-117, tag omitted): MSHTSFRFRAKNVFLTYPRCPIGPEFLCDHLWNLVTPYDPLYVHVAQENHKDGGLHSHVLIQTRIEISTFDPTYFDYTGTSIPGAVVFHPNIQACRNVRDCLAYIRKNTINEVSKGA
# Description: as §1
# [7] = test system: T7, Rep nickase domain of porcine circovirus 2
# T7 sequence (protein, residues 2-116, tag omitted): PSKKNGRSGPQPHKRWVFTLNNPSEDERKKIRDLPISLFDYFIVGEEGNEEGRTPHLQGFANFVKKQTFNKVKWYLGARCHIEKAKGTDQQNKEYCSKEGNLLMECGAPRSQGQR
# Description: as §1
# [8] = test system: T8, Rep nickase domain of tomato golden mosaic virus
# T8 sequence (protein, residues 1-124, tag omitted): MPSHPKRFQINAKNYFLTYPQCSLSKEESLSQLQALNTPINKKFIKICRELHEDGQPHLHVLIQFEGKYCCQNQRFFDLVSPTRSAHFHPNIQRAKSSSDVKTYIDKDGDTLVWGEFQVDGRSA
# Description: as §1
# [9] = test system: T9, Rep nickase domain of tomato yellow leaf curl virus
# T9 sequence (protein, residues 1-136, tag omitted): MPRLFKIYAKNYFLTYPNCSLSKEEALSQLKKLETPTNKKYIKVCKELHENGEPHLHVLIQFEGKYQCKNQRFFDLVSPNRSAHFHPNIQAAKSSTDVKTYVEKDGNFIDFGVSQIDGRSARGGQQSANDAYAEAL
# Description: as §1
# [10] = test system: T10, Rep nickase domain of wheat dwarf virus
# T10 sequence (protein, residues 1-137, tag omitted): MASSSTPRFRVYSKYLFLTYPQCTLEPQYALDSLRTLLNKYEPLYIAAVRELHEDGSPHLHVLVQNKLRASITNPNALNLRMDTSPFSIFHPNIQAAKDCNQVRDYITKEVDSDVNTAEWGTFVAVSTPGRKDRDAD
# Description: as §1
Sequence,uncleaved DNA left (log2) [1],uncleaved DNA left (log2) [2],uncleaved DNA left (log2) [3],uncleaved DNA left (log2) [4],uncleaved DNA left (log2) [5],uncleaved DNA left (log2) [6],uncleaved DNA left (log2) [7],uncleaved DNA left (log2) [8],uncleaved DNA left (log2) [9],uncleaved DNA left (log2) [10]
AGATTGG,0.0298,0.025,-0.603,-0.576,-0.052,-1.15,0.116,-0.00608,0.0202,-0.0854
CTGGTGG,0.0266,0.0439,0.137,0.502,0.0577,0.046,0.168,0.075,-0.0764,-0.0561
GGATACG,0.0935,-0.054,-0.366,-0.0773,0.0189,-0.552,0.209,0.0256,-0.082,-0.0357
GGGACAG,0.0774,0.242,0.984,2.24,-0.0292,2.48,0.393,0.204,-0.369,0.269
ACAAGGT,0.0616,-0.136,0.0524,0.128,-0.0365,-0.274,0.134,0.0485,-0.0989,-0.144
TTTCACC,-0.0571,0.0318,0.0808,-0.344,-0.0373,-0.166,-0.303,-0.137,0.00963,-0.0341
ACGGTTA,0.11,0.0322,-0.228,-0.635,-0.0178,0.141,-0.205,0.145,-0.0428,-0.123
TACTCCG,-0.0164,-0.132,-1.02,-0.798,-0.0155,-1.03,-0.111,-0.132,-0.213,-0.192
AGCATCA,0.0421,0.159,0.353,0.371,-0.0365,0.488,-0.451,0.0582,-0.00528,0.129
CGGTGCT,-0.329,0.0162,-0.378,-0.755,0.038,-0.548,-2.32,-0.00799,0.134,-0.00385
CGATGCG,0.000893,0.0168,-0.637,0.709,-0.0177,-0.342,0.068,-0.157,-0.0991,-0.107
ACCGCTA,-0.046,-0.0448,-0.44,-1.05,-0.127,-1.04,-0.161,-0.0117,-0.103,-0.0617
AGCTTAA,0.0724,0.0908,-0.0267,0.187,0.0648,0.119,-0.778,-0.0128,-0.0321,0.131
GACACAA,0.0527,0.139,0.376,0.781,0.114,0.672,0.242,0.0323,0.222,0.183
CACTAGC,0.00656,-0.106,-0.433,-0.633,0.09,-1.08,0.0634,0.0466,0.0555,-0.00348
CACGGTA,0.0245,-0.165,0.0594,-0.454,-0.184,0.015,-0.06,-0.0743,-0.149,-0.0502
